Experimental data from the supplement of paper PMC9174493.
The list shows a part of the results. Single values of this set are uncertain. Values with irradiation are relative to irradiated vehicle.

Experiments:
A549-Dual [1] = experiment: NF-kB reporter (SEAP) activity, viability-corrected, relative to vehicle (fold change vs vehicle); higher = more activation of STING-IRF / NF-kB immune response reporter; details: 10 µM
A549-Dual [2] = experiment: ISRE reporter (Lucia luciferase) activity, viability-corrected, relative to vehicle (fold change vs vehicle); higher = more activation of STING-IRF / NF-kB immune response reporter; details: 10 µM
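Throughout, for NF-kB reporter (SEAP) activity, viability-corrected, relative to vehicle: viability correction based on the alamar blue assay, with concentrations leaving 10% survival or less dropped.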

SMILES	NF-kB reporter (A549-Dual [1]; irradiation: 8 Gy/4 fr)	NF-kB reporter (A549-Dual [1]; irradiation: none)	ISRE reporter (A549-Dual [2]; irradiation: 8 Gy/4 fr)	ISRE reporter (A549-Dual [2]; irradiation: none)
C[N+](C)(C)CCO.O=C([O-])C(O)C(O)C(=O)O (stereo not given) [Choline bitartrate]	1.03	0.644	1.12	0.659
CCN(CC)CCOC(=O)c1ccc(N)cc1 [Procaine]	0.723	1.01	0.659	0.699
CC(=O)NC(CCC(N)=O)C(=O)O (stereo not given) [Aceglutamide]	0.659	2.14	0.772	0.92
COC(=O)Nc1nc2ccc(C(=O)c3ccc(F)cc3)cc2[nH]1 [Flubendazole]	0.783	1.66	0.244	1.38
COc1ccc(/C=C/C(=O)Nc2ccccc2C(=O)O)cc1OC [Trans-Tranilast]	0.856	0.828	0.937	0.733
CCCOc1ccc2c(c1)CCC1C2CCC2(C)C(OC)CCC12 (stereo not given) [Promestriene]	0.663	0.904	0.566	0.635
O=C(NC(Cc1cc(=O)[nH]c2ccccc12)C(=O)O)c1ccc(Cl)cc1 (stereo not given) [Rebamipide]	0.863	0.99	0.932	0.741
CN(C)C(=O)NC1CCC(CCN2CCN(c3cccc(Cl)c3Cl)CC2)CC1.Cl (stereo not given) [Cariprazine HCl]	0.681	1.15	0.613	0.93
Cc1cc(C(C)(C)C)c(O)c(C(C)(C)C)c1 [Butylated hydroxytoluene]	0.792	0.896	0.659	0.777
C=C1CCC2CC1C2(C)C (stereo not drawn) [(-)-β-Pinene]	0.734	0.9	0.729	0.812
CNC1C(=O)NC2Cc3ccc(cc3)Oc3cc4cc(c3OC3OC(C(=O)O)C(O)C(O)C3NC(=O)CCCCCCCCC(C)C)Oc3ccc(cc3Cl)C(O)C3NC(=O)C(NC(=O)C4NC(=O)C(NC2=O)c2cc(cc(O)c2Cl)Oc2ccc1cc2O)c1ccc(O)c(c1)-c1c(OC2OC(CO)C(O)C(O)C2O)cc(O)cc1C(C(=O)NCCCN(C)C)NC3=O (stereo not given) [Dalbavancin]	0.889	1.09	0.91	0.974
O=C(O)CCC(=O)O [Succinic acid]	0.617	0.813	0.774	0.678
O.O.O.O.O.OCC1OC(OCC2OC(OC3(CO)OC(CO)C(O)C3O)C(O)C(O)C2O)C(O)C(O)C1O [D-(+)-Raffinose pentahydrate]	0.812	0.821	0.817	0.63
CC(C)C[C@H](N)C(=O)O [L-Leucine]	0.826	0.87	0.834	0.763
C=C1/C(=C\C=C2/CCCC3(C)C2CCC3C(C)CCCC(C)(C)O)CC(O)CC1O (stereo not given) [Calcitriol]	0.518	0.669	0.392	0.716
Nc1nc2c(ncn2COC(CO)CO)c(=O)[nH]1 [Ganciclovir]	0.609	0.944	0.607	0.72
CNC1C(OC2OC(CO)C(N)C(O)C2O)OC2CC(N)C(OC3C(N)CC(N)C(O)C3O)OC2C1O.O=S(=O)(O)O (stereo not given) [Apramycin Sulfate]	0.908	1.47	0.779	1.55
CC1CCC2(OC1)OC1CC3C4CC=C5CC(O)CC(O)C5(C)C4CCC3(C)C1C2C (stereo not given) [Ruscogenin]	0.907	0.913	0.972	0.8
NC(=O)c1cnccn1 [Pyrazinamide]	0.998	0.954	0.955	0.807
CCC(NC(C)C)C(O)c1ccc(O)c2[nH]c(=O)ccc12.Cl (stereo not given) [Procaterol HCl]	0.699	0.86	0.651	0.646
CC1(C)SC2C(NC(=O)COc3ccccc3)C(=O)N2C1C(=O)[O-].[K+] (stereo not given) [Penicillin V potassium salt]	0.845	0.848	0.875	0.856
COc1ccc2cc3[n+](cc2c1OC)CCc1cc2c(cc1-3)OCO2.O=S(=O)([O-])O [Berberine Sulfate]	0.55	1.33	0.168	0.676
O=c1ccn(C2OC(COP(=O)(O)O)C(O)C2O)c(=O)[nH]1 (stereo not given) [Uridine 5'-monophosphate]	1.15	0.837	0.96	0.983
O=c1cc(-c2ccccc2)oc2ccccc12 [Flavone]	0.608	0.994	0.305	0.53

SMILES	NF-kB reporter (A549-Dual [1]; irradiation: 8 Gy/4 fr)	NF-kB reporter (A549-Dual [1]; irradiation: none)	ISRE reporter (A549-Dual [2]; irradiation: 8 Gy/4 fr)	ISRE reporter (A549-Dual [2]; irradiation: none)
CC(C)CN(CC(O)C(Cc1ccccc1)NC(=O)OC1COC2OCCC12)S(=O)(=O)c1ccc(N)cc1.CCO (stereo not given) [Darunavir Ethanolate]	0.991	1.01	0.994	0.901
Cc1cc2c(s1)Nc1ccccc1N=C2N1CCN(C)CC1 [Olanzapine]	1.44	0.853	1.46	1.03
CCC(=O)OC1C(OC2C(C)C(OC3CC(C)(OC)C(O)C(C)O3)C(C)C(=O)OC(CC)C(C)(O)C(O)C(C)C(=O)C(C)CC2(C)O)OC(C)CC1N(C)C.CCCCCCCCCCCCOS(=O)(=O)O (stereo not given) [Erythromycin estolate]	1.51	0.728	1.86	0.855
NC(=O)NC1NC(=O)NC1=O (stereo not given) [Allantoin]	0.745	0.997	0.766	0.774
O=C(O)CCCCCCCCC(=O)O [Sebacic acid]	0.826	0.921	0.797	0.72
Cc1ncc(CSSCc2cnc(C)c(O)c2CO)c(CO)c1O [Pyrithioxin]	0.806	0.722	0.939	0.597
CCOC(=O)C1=CC(OC(CC)CC)C(NC(C)=O)C(N)C1.O=P(O)(O)O (stereo not given) [Oseltamivir Phosphate]	0.826	1.03	0.796	1.01
CC(=O)OCC[N+](C)(C)C.[I-] [Acetylcholine iodide]	0.574	0.93	0.556	0.612
Cc1cccc(CN2CCN(C(c3ccccc3)c3ccc(Cl)cc3)CC2)c1.Cl.Cl (stereo not given) [Meclizine 2HCl]	0.74	0.585	0.996	0.553
CO/N=C(\C(=O)NC1C(=O)N2C(C(=O)OCOC(=O)C(C)(C)C)=C(/C=C\c3scnc3C)CSC12)c1csc(N)n1 (stereo not given) [Cefditoren Pivoxil]	0.639	0.984	0.639	0.791
NC(C=O)C(O)C(O)C(O)CO (stereo not given) [Glucosamine]	0.611	0.559	0.625	0.499
O=C([O][Na])[O][Na] [Sodium carbonate]	0.988	0.745	0.944	0.63
CCCCC(CC)COC(=O)C(C#N)=C(c1ccccc1)c1ccccc1 (stereo not given) [Octocrylene]	0.244	0.496	0.153	0.249
Cc1occc(=O)c1O [Maltol]	0.89	0.855	1.01	0.896
CC(=O)Oc1cc(C(C)C)c(OCCN(C)C)cc1C.Cl [Moxisylyte hydrochloride]	0.771	1.17	0.814	0.726
Cc1ncc([N+](=O)[O-])n1CC(C)O (stereo not given) [Secnidazole]	0.78	1.1	0.77	0.941
CN(C(=O)CN(CCO)CC(=O)N(C)C(C)(C)Cc1ccccc1)C(C)(C)Cc1ccccc1 [Oxethazaine]	0.391	0.447	0.282	0.316
CC(C)(C)NCC(O)c1ccc(O)c(CO)c1.CC(C)(C)NCC(O)c1ccc(O)c(CO)c1.O=C(O)C(O)C(O)C(=O)O (stereo not given) [levalbuterol tartrate]	0.79	1.25	0.742	0.696
Cc1cccc(C)c1NC(=O)C1CCCCN1C (stereo not given) [Mepivacaine]	0.488	1.08	0.531	0.681
CNC1CCCN(c2c(F)cc3c(=O)c(C(=O)O)cn(C4CC4)c3c2OC)C1.O.O (stereo not given) [Balofloxacin Dihydrate]	0.998	0.967	0.893	1.04
CNCC(O)c1cccc(O)c1.Cl (stereo not given) [Phenylephrine HCl]	0.768	0.884	0.935	0.819
CCCC(=O)OCOC(=O)C1=C(C)NC(C)=C(C(=O)OC)C1c1cccc(Cl)c1Cl (stereo not given) [Clevidipine Butyrate]	0.709	0.943	0.776	0.857
CCC1OC(=O)CC(O)C(C)C(OC2OC(C)C(O)C(N(C)C)C2O)C(CCN2CC(C)CC(C)C2)CC(C)C(=O)/C=C/C(C)=C/C1COC1OC(C)C(O)C(OC)C1OC.O=P(O)(O)O (stereo not given) [Tilmicosin phosphate]	0.758	0.837	0.68	0.693
CN(C)CCn1nnnc1SCC1=C(C(=O)O)N2C(=O)C(NC(=O)Cc3csc(N)n3)C2SC1.Cl.Cl (stereo not given) [Cefotiam hydrochloride]	0.808	0.866	0.804	0.672

SMILES	NF-kB reporter (A549-Dual [1]; irradiation: 8 Gy/4 fr)	NF-kB reporter (A549-Dual [1]; irradiation: none)	ISRE reporter (A549-Dual [2]; irradiation: 8 Gy/4 fr)	ISRE reporter (A549-Dual [2]; irradiation: none)
CCC(Cc1c(I)cc(I)c(N)c1I)C(=O)O (stereo not given) [Iopanoic acid]	1.62	0.876	1.77	0.91
CN(C)CCN(Cc1ccccc1)c1ccccn1.Cl [Tripelennamine HCl]	0.771	1.23	0.662	0.705
COS(=O)(=O)[O-].C[n+]1c2ccccc2nc2ccccc21 [Phenazine methosulfate]	1.88	3.42	0.35	1.09
Nc1nc(N)nc(-c2cc(Cl)ccc2Cl)n1 [Irsogladine]	0.858	0.951	0.961	0.777
CCC1OC(=O)C(C)C(OC2CC(C)(OC)C(O)C(C)O2)C(C)C(OC2OC(C)CC(N(C)C)C2O)C(C)(O)CC(C)C(=O)C(C)C2OC(=O)OC12C (stereo not given) [Erythromycin Cyclocarbonate]	0.716	0.95	0.798	1.12
CO/N=C(\C(=O)NC1C(=O)N2C(C(=O)[O-])=C(COC(N)=O)CSC12)c1ccco1.[Na+] (stereo not given) [Cefuroxime sodium]	0.876	0.971	0.901	0.794
CO/N=C1\CC2(CC3CC(C/C=C(\C)CC(C)/C=C/C=C4\COC5C(O)C(C)=CC(C(=O)O3)C45O)O2)OC(/C(C)=C/C(C)C)C1C (stereo not given) [Moxidectin]	1.13	1.7	1.02	3.36
COC(=O)N/N=C/c1c[n+]([O-])c2ccccc2[n+]1[O-] [Carbadox]	0.638	0.593	0.154	0.126
Cl.O=C1CC2(CCCC2)CC(=O)N1CCCCN1CCN(c2ncccn2)CC1 [Buspirone HCl]	1	1.07	0.889	0.833
O=C(CO)C(O)C(OC1OC(CO)C(O)C(O)C1O)C(O)CO (stereo not given) [Lactulose]	0.789	0.965	0.756	0.85
Cn1c(=O)c2c(ncn2CC(O)CO)n(C)c1=O (stereo not given) [Dyphylline]	1.02	1.17	0.974	0.908
C1CCNC1 [Pyrrolidine]	0.833	0.907	0.809	0.779
OCCN1CC(O)C(O)C(O)C1CO (stereo not given) [Miglitol]	0.591	0.807	0.578	0.953
COc1cc(N)c(Cl)cc1C(=O)NC1CCN(CCCOc2ccc(F)cc2)CC1OC (stereo not given) [Cisapride]	0.945	1.33	0.671	0.735
CNC(CC(C)C)C(=O)NC1C(=O)NC(CC(N)=O)C(=O)NC2C(=O)NC3C(=O)NC(C(=O)NC(C(=O)O)c4cc(O)cc(O)c4-c4cc3ccc4O)C(O)c3ccc(c(Cl)c3)Oc3cc2cc(c3OC2OC(CO)C(O)C(O)C2OC2CC(C)(N)C(O)C(C)O2)Oc2ccc(cc2Cl)C1O (stereo not given) [Vancomycin]	0.84	1.03	0.799	0.831
COc1cc(O)c(C(=O)Nc2nc(C(=O)NCCN(C(C)C)C(C)C)cs2)cc1OC [Acotiamide]	1.1	0.779	1.57	1.07
O=c1ccc2ccc(O)cc2o1 [Umbelliferone]	0.933	0.868	0.735	0.677
CC(=O)OCC(=O)C12N=C(C)OC1CC1C3CCC4=CC(=O)C=CC4(C)C3C(O)CC12C (stereo not given) [Deflazacort]	0.372	0.615	0.0729	0.251
CN1CCN2c3ccccc3Cc3ccccc3C2C1.Cl (stereo not given) [Mianserin HCl]	0.654	0.833	0.953	1.1
COC(=O)c1cc(OC)c2c(c1-c1c(CO)cc(OC)c3c1OCO3)OCO2 [Bicyclol]	0.713	0.771	0.659	0.645
CC(C)CN(CC(O)C(Cc1ccccc1)NC(=O)OC1COC2OCCC12)S(=O)(=O)c1ccc(N)cc1 (stereo not given) [Darunavir]	1.02	0.93	1.07	0.883
O=c1cc(-c2ccc(O)cc2)oc2c(C3OC(CO)C(O)C(O)C3O)c(O)cc(O)c12 (stereo not given) [Vitexin]	0.632	0.726	0.518	0.584
